Test results published in paper PMC9911399, “Two distinct binding modes provide the RNA-binding protein RbFox with extraordinary sequence specificity”.
Substitutions are numbered along the chain they refer to; changes in the protein carry UniProt numbers. The list shows a part of the results.

T1: RBFOX1 RRM (Homo sapiens, UniProt Q9NWB1 109-208)
T1 sequence: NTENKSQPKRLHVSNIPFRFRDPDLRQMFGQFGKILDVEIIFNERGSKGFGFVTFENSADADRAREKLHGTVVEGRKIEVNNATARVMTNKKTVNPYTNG

B1: AUCGAAA (DNA:RNA)
RNA: GGGAGACCGGAAUUCAGAUUGUCCAUCGAAAUUAAAUCCCGUCGUAGCCACCA
DNA 1: CAATCTGAATTCCGGTCTCCC
DNA 2: TGGTGGCTACGACGGGATT
B2: CAAUCUC (DNA:RNA)
RNA: GGGAGACCGGAAUUCAGAUUGUCCCAAUCUCUUAAAUCCCGUCGUAGCCACCA
DNA 1: CAATCTGAATTCCGGTCTCCC
DNA 2: TGGTGGCTACGACGGGATT
B3: GAAUACC (DNA:RNA)
RNA: B2 RNA with C25G, C29A, U30C
DNA 1: CAATCTGAATTCCGGTCTCCC
DNA 2: TGGTGGCTACGACGGGATT
B4: AAGAGAU (DNA:RNA)
RNA: B1 RNA with U26A, C27G, G28A, A29G, A31U
DNA 1: CAATCTGAATTCCGGTCTCCC
DNA 2: TGGTGGCTACGACGGGATT
B5: GCCAACC (DNA:RNA)
RNA: B1 RNA with A25G, U26C, G28A, A30C, A31C
DNA 1: CAATCTGAATTCCGGTCTCCC
DNA 2: TGGTGGCTACGACGGGATT
B6: UGUUCUG (DNA:RNA)
RNA: B2 RNA with C25U, A26G, A27U, C31G
DNA 1: CAATCTGAATTCCGGTCTCCC
DNA 2: TGGTGGCTACGACGGGATT
B7: UGCUAGG (DNA:RNA)
RNA: B1 RNA with A25U, U26G, G28U, A30G, A31G
DNA 1: CAATCTGAATTCCGGTCTCCC
DNA 2: TGGTGGCTACGACGGGATT
B8: CAAUGAG (DNA:RNA)
RNA: B2 RNA with C29G, U30A, C31G
DNA 1: CAATCTGAATTCCGGTCTCCC
DNA 2: TGGTGGCTACGACGGGATT
B9: GCGUGCU (DNA:RNA)
RNA: B2 RNA with C25G, A26C, A27G, C29G, U30C, C31U
DNA 1: CAATCTGAATTCCGGTCTCCC
DNA 2: TGGTGGCTACGACGGGATT
B10: UACGCCA (DNA:RNA)
RNA: B1 RNA with A25U, U26A, A29C, A30C
DNA 1: CAATCTGAATTCCGGTCTCCC
DNA 2: TGGTGGCTACGACGGGATT
B11: CGUUGAG (DNA:RNA)
RNA: B2 RNA with A26G, A27U, C29G, U30A, C31G
DNA 1: CAATCTGAATTCCGGTCTCCC
DNA 2: TGGTGGCTACGACGGGATT
B12: AGGUCCU (DNA:RNA)
RNA: B2 RNA with C25A, A26G, A27G, U30C, C31U
DNA 1: CAATCTGAATTCCGGTCTCCC
DNA 2: TGGTGGCTACGACGGGATT
B13: GUGCCCC (DNA:RNA)
RNA: B2 RNA with C25G, A26U, A27G, U28C, U30C
DNA 1: CAATCTGAATTCCGGTCTCCC
DNA 2: TGGTGGCTACGACGGGATT
B14: GCACCCC (DNA:RNA)
RNA: B2 RNA with C25G, A26C, U28C, U30C
DNA 1: CAATCTGAATTCCGGTCTCCC
DNA 2: TGGTGGCTACGACGGGATT
B15: CCGUCUA (DNA:RNA)
RNA: B2 RNA with A26C, A27G, C31A
DNA 1: CAATCTGAATTCCGGTCTCCC
DNA 2: TGGTGGCTACGACGGGATT
B16: GACAUAU (DNA:RNA)
RNA: B1 RNA with A25G, U26A, G28A, A29U, A31U
DNA 1: CAATCTGAATTCCGGTCTCCC
DNA 2: TGGTGGCTACGACGGGATT
B17: AGCUGAC (DNA:RNA)
RNA: B1 RNA with U26G, G28U, A29G, A31C
DNA 1: CAATCTGAATTCCGGTCTCCC
DNA 2: TGGTGGCTACGACGGGATT
B18: AAAUAAC (DNA:RNA)
RNA: B2 RNA with C25A, C29A, U30A
DNA 1: CAATCTGAATTCCGGTCTCCC
DNA 2: TGGTGGCTACGACGGGATT
B19: GUGUCGU (DNA:RNA)
RNA: B2 RNA with C25G, A26U, A27G, U30G, C31U
DNA 1: CAATCTGAATTCCGGTCTCCC
DNA 2: TGGTGGCTACGACGGGATT
B20: UACUCUU (DNA:RNA)
RNA: B2 RNA with C25U, A27C, C31U
DNA 1: CAATCTGAATTCCGGTCTCCC
DNA 2: TGGTGGCTACGACGGGATT

What follows are binders tested against T1, RBFOX1 RRM (assay: EMSA; HiTS-Eq, 1 nM pool, 10 min; buffer printed only for the single-RNA assays: 10 mM Tris pH 7.5, 150 mM NaCl, 3.4 mM EDTA, 0.001% NP-40, 30 C). Settings: tags: His6 N-terminal (pET28a); label: 5' 32P.
Procedure, shortened: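 Purified RbFox RRM (wild type or mutant) was equilibrated for 10 min in 50 µL with 1 nM of a 5′-radiolabelled pool of RNA with 7 randomized nucleotides, its flanks annealed to DNA oligonucleotides, across increasing protein concentrations. Free RNA was separated by 8% native PAGE, excised, reverse-transcribed, PCR-barcoded and sequenced on an Illumina HiSeq 2500. Relative association constants came from read-count changes of each variant against the control reaction, normalised to the cognate motif.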

Row | Binder | binding signal
1 | B1 | 0.00229 KA relative to UGCAUGU
2 | B2 | 0.000563 KA relative to UGCAUGU
3 | B3 | 0.00111 KA relative to UGCAUGU
4 | B4 | 0.00833 KA relative to UGCAUGU
5 | B5 | 0.00424 KA relative to UGCAUGU
6 | B6 | 0.0328 KA relative to UGCAUGU
7 | B7 | 0.017 KA relative to UGCAUGU
8 | B8 | 0.0097 KA relative to UGCAUGU
9 | B9 | 0.0251 KA relative to UGCAUGU
10 | B10 | 0.00185 KA relative to UGCAUGU
11 | B11 | 0.0235 KA relative to UGCAUGU
12 | B12 | 0.0111 KA relative to UGCAUGU
13 | B13 | 0.00682 KA relative to UGCAUGU
14 | B14 | 0.0059 KA relative to UGCAUGU
15 | B15 | 0.00299 KA relative to UGCAUGU
16 | B16 | 0.00404 KA relative to UGCAUGU
17 | B17 | 0.0156 KA relative to UGCAUGU
18 | B18 | 0.0016 KA relative to UGCAUGU
19 | B19 | 0.0195 KA relative to UGCAUGU
20 | B20 | 0.00553 KA relative to UGCAUGU
